Assay results taken from article PMC10914751.
These are yes or no findings as the source states them, for the method shown. For some assays here: In cells and extracts the contact can be indirect. Some entries that bind do so weakly or less than the wild type.

By UniProt entry, the sequences of proteins in these tests, tags left out. Where a name states a change or a piece, a line headed by the entry shows the natural chain unless it says otherwise. Chains listed by the source or under a name are the forms on record and can include a tag or linker. Residues count along the entry.
UniProt P12520: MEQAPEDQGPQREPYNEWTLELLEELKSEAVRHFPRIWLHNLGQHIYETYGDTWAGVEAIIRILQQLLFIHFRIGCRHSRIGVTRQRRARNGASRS
mGFP-STREP-TEV-fused Vpr(51–96) (HIV-1 (NL4-3 isolate)): residues 51-96 of P12520
mGFP-STREP-TEV-fused Vpr(75–96) (HIV-1 (NL4-3 isolate)): residues 75-96 of P12520
VprBP AR (residues 1401–1507) (Q9Y4B6, residues 1401-1507): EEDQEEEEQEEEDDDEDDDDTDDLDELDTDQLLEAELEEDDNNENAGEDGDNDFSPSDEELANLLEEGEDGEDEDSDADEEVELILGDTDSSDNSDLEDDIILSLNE
VprBP(1401–1450) (Q9Y4B6, residues 1401-1450): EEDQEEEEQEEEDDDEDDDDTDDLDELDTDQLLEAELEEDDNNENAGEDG
His-Maltose binding protein (MBP)-fused VprBP(1446–1507) (Q9Y4B6, residues 1446-1507): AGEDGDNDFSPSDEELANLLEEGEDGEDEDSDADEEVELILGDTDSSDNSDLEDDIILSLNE

Legend:
[1] = biological target: STREP-Vpr (HIV-1 (NL4-3 isolate)) (UniProt P12520); test: co-IP; STREP-Vpr or mGFP-STREP-containing Vpr ligands precipitated from cells transfected with the indicated constructs; immunoblot
[2] = biological target: mGFP-STREP-TEV-fused Vpr (HIV-1 (NL4-3 isolate)) (UniProt P12520); test: as above
[3] = biological target: mGFP-STREP-TEV-fused Vpr(51–96) (HIV-1 (NL4-3 isolate)) (UniProt P12520); test: as above
[4] = biological target: mGFP-STREP-TEV-fused Vpr(75–96) (HIV-1 (NL4-3 isolate)) (UniProt P12520); test: as above
[5] = biological target: VprBP AR (residues 1401–1507) (UniProt Q9Y4B6); test: co-IP; HEK293T cells transfected with the indicated constructs; TBSN buffer (20 mM Tris-HCl pH 8.0, 120 mM NaCl, 0.5% Nonidet P-40, 5 mM EGTA, 1.5 mM EDTA, 2 mM DTT); immunoblot; Supplementary Fig. 2b under thymidine or nocodazole treatment
VprBP(1401–1450) = VprBP(1401–1450) (UniProt Q9Y4B6); test: as above
[6] = biological target: VprBP(1446–1507) (transfected) (UniProt Q9Y4B6); test: as above
[7] = biological target: His-Maltose binding protein (MBP)-fused VprBP(1446–1507) (UniProt Q9Y4B6); test: SEC; co-elution of MBP-VprBP(1446–1507) and CPB(581–808), Coomassie-stained SDS-PAGE of fractions; whether co-expressed or mixed is not told

Binder | binding [1] | binding [2] | binding [3] | binding [4] | binding [5] | binding (VprBP(1401–1450)) | binding [6] | binding [7]
full-length Plk4 (transfected) (protein, UniProt O00444 1-970) MATCIGEKIEDFKVGNLLGKGSFAGVYRAESIHTGLEVAIKMIDKKAMYKAGMVQRVQNEVKIHCQLKHPSILELYNYFEDSNYVYLVLEMCHNGEMNRYLKNRVKPFSENEARHFMHQIITGMLYLHSHGILHRDLTLSNLLLTRNMNIKIADFGLATQLKMPHEKHYTLCGTPNYISPEIATRSAHGLESDVWSLGCMFYTLLIGRPPFDTDTVKNTLNKVVLADYEMPSFLSIEAKDLIHQLLRRNPADRLSLSSVLDHPFMSRNSSTKSKDLGTVEDSIDSGHATISTAITASSSTSISGSLFDKRRLLIGQPLPNKMTVFPKNKSSTDFSSSGDGNSFYTQWGNQETSNSGRGRVIQDAEERPHSRYLRRAYSSDRSGTSNSQSQAKTYTMERCHSAEMLSVSKRSGGGENEERYSPTDNNANIFNFFKEKTSSSSGSFERPDNNQALSNHLCPGKTPFPFADPTPQTETVQQWFGNLQINAHLRKTTEYDSISPNRDFQGHPDLQKDTSKNAWTDTKVKKNSDASDNAHSVKQQNTMKYMTALHSKPEIIQQECVFGSDPLSEQSKTRGMEPPWGYQNRTLRSITSPLVAHRLKPIRQKTKKAVVSILDSEEVCVELVKEYASQEYVKEVLQISSDGNTITIYYPNGGRGFPLADRPPSPTDNISRYSFDNLPEKYWRKYQYASRFVQLVRSKSPKITYFTRYAKCILMENSPGADFEVWFYDGVKIHKTEDFIQVIEKTGKSYTLKSESEVNSLKEEIKMYMDHANEGHRICLALESIISEEERKTRSAPFFPIIIGRKPGSTSSPKALSPPPSVDSNYPTRERASFNRMVMHSAASPTQAPILNPSMVTNEGLGLTTTASGTDISSNSLKDCLPKSAQLLKSVFVKNVGWATQLTSGAVWVQFNDGSQLVVQAGVSSISYTSPNGQTTRYGENEKLPDYIKQKLQCLSSILLMFSNPTPNFH | binds | binds | binds weakly | binds weakly | binds | no binding | binds | –
Plk4 CPB(581–808) (domain or fragment, UniProt O00444 581-808) GYQNRTLRSITSPLVAHRLKPIRQKTKKAVVSILDSEEVCVELVKEYASQEYVKEVLQISSDGNTITIYYPNGGRGFPLADRPPSPTDNISRYSFDNLPEKYWRKYQYASRFVQLVRSKSPKITYFTRYAKCILMENSPGADFEVWFYDGVKIHKTEDFIQVIEKTGKSYTLKSESEVNSLKEEIKMYMDHANEGHRICLALESIISEEERKTRSAPFFPIIIGRKPG | – | – | – | – | – | – | – | binds
